PubChem BioAssay AID540317 (National Center for Advancing Translational Sciences (NCATS), 2011)
The campaign covered roughly 390,000 compounds. About 2,200 (0.56%) were called active. This list was built around the results that the source calls inconclusive (neither active nor inactive); the mix of calls is not that of the screen. Calls come from the whole dose curve; as a rule, active = well fitted inhibition curve with a large enough effect; inconclusive = small, poorly fitted or top-dose-only effect; inactive = no such curve, though single readings can be large or run the other way. Where the call is inconclusive, the potency comes from a doubtful curve fit.

Each compound was assayed against Chromobox protein homolog 1 (Homo sapiens) (UniProt P83916) (assay: HTS for Inhibitors of HP1-beta Chromodomain Interactions with Methylated Histone Tails). Settings: AlphaScreen HP1-beta / biotin-H3K9me3 peptide binding; series mostly up to 114 µM; activity change, negative = inhibition: at the top concentration.
UniProt P83916, sequence (P83916 whole entry, looked up): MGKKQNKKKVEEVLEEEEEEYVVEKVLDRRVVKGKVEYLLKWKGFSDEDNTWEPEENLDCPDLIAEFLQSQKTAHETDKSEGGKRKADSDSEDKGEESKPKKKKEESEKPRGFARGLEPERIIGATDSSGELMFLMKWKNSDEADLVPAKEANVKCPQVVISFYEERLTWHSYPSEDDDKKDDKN
Method in brief: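 HP1-beta protein (50 nM final) preincubated 30 min at room temperature with biotinylated H3(1-18)K9me3 peptide (50 nM) in PBS pH 7.4, 0.01% Tween-20, then compound added for 30 min. AlphaScreen streptavidin donor/nickel chelate acceptor beads (10 ug/mL final), 30 min dark, luminescence read.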
Note: nearly all actives have a fitted effect of over 70% in size.
Potency is the fitted concentration of half-maximal effect; tags give direction and shape of the fitted curve.

| Structure (SMILES) | Potency | activity change, negative = inhibition |
| --- | --- | --- |
| CCOc1ccccc1N1C(=O)CC(Nc2ccc(N3CCOCC3)cc2)C1=O (stereo unspecified) | inconclusive: 39.8 µM [inhibitor, partial curve] |  |
| COc1cc(NC(=O)Cn2c(=O)oc3cc(S(=O)(=O)N4CCCCCC4)ccc32)cc(OC)c1 |  | inactive: 20.6% |
| Cc1ccc(C)c(NC(=S)NCCN(C2CCCCC2)C2CCCC2)c1 |  | inactive: 18.5% |
| COc1ccc(C(=O)NCc2nnc(SCC(=O)Nc3ccccc3)n2-c2ccc(F)cc2)cc1 |  | inactive: 20.1% |
| CCOC(=O)c1c[nH]c2c(Cl)c(Cl)ccc2c1=O | inconclusive: 39.8 µM [inhibitor, single point] |  |
| COc1ccccc1-c1cc(C(=O)Nc2sc3c(c2C#N)CCCC3)no1 | inconclusive: 12.6 µM [inhibitor, partial curve] |  |
| COc1ccccc1NC(=S)NCCc1ccccc1 |  | inactive: 11.8% |
| COC(=O)C1=CC(C(=O)c2cccs2)=NN(c2ccc(OC)cc2)C1C(=O)OC (stereo unspecified) | inconclusive: 15.8 µM [inhibitor, full curve] |  |
| CCN(c1ccccc1)S(=O)(=O)c1ccc(OC)c(NC(=O)CN(C)C)c1 | inconclusive: 28.2 µM [inhibitor, single point] |  |
| Cc1ccc(CNC(=O)Cn2nnc3ccccc3c2=O)cc1 | inconclusive: 89.1 µM [inhibitor, single point] |  |
| CCN(CC)S(=O)(=O)c1nnc(NC(=O)COc2ccccc2Cl)s1 | inconclusive: 12.6 µM [inhibitor, full curve] |  |
| COc1ccc(NC(=S)c2ccc(N(C)C)cc2)cc1 | inconclusive: 28.2 µM [inhibitor, single point] |  |
| N#Cc1c(-c2cccs2)nc(SCC(=O)c2ccc(Br)cc2)[nH]c1=O | inconclusive: 79.4 µM [inhibitor, single point] |  |
| COCC(=O)NNC(=S)Nc1cccc(C)c1C | inconclusive: 89.1 µM [inhibitor, single point] |  |
| CC(=O)Nc1ccc(N2C(=O)CC(Sc3nc(C)cc(C)n3)C2=O)cc1 (stereo unspecified) |  | inactive: 34.9% |
| Cc1cc(OCC(=O)NCCN2CCOCC2)c2c(C)c(C)c(=O)oc2c1 |  | inactive: 14.9% |
| COc1cccc(/C=N\NC(=O)c2ccc(Cn3cc(Br)c([N+](=O)[O-])n3)o2)c1O |  | inactive: 11.1% |
| Cc1cccc(C)c1OCCN1CCCC1 | inconclusive: 31.6 µM [inhibitor, partial curve] |  |
| Cc1ccc(OCC(=O)Nc2ccc(N(C)C)cc2)cc1 | inconclusive: 50.1 µM [inhibitor, partial curve] |  |
| COc1cc2c(cc1NC(=O)COC(=O)CNS(=O)(=O)c1ccc(C)cc1)oc1ccccc12 |  | inactive: 35.3% |
| COc1ccc(C2CC(=O)Oc3c(C(CCN4CCCC(C)C4)c4cc(OC)c(OC)c(OC)c4)c(OC)cc(OC)c32)cc1 (stereo unspecified) |  | inactive: 17.3% |
